The record followed here is US6855515.

The subject of series [1] is 18 different human non-autoantigens.
Series [2] has as its target Alanyl tRNA synthetase (PL-12) (UniProt P49588).
The next series addresses T1, CENP B (UniProt P07199).
T1 sequence: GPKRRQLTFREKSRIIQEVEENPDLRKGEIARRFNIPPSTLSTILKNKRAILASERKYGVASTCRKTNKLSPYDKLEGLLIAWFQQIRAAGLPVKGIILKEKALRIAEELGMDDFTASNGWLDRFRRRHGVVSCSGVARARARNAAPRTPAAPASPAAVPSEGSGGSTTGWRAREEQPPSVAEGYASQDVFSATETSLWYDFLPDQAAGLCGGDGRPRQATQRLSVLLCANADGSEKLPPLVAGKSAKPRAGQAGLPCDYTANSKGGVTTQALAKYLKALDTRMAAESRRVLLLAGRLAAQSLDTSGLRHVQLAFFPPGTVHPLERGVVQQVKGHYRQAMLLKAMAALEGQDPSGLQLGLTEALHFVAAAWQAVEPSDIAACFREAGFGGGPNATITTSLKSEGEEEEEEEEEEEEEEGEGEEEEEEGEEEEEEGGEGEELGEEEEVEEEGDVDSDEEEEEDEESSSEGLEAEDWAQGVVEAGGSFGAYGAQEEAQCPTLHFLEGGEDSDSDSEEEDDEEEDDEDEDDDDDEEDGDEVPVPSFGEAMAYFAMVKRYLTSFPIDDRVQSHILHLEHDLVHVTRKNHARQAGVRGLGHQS

For series [3], the target named is T2, Histidyl tRNA synthetase (Jo-1) (UniProt P12081).
T2 sequence: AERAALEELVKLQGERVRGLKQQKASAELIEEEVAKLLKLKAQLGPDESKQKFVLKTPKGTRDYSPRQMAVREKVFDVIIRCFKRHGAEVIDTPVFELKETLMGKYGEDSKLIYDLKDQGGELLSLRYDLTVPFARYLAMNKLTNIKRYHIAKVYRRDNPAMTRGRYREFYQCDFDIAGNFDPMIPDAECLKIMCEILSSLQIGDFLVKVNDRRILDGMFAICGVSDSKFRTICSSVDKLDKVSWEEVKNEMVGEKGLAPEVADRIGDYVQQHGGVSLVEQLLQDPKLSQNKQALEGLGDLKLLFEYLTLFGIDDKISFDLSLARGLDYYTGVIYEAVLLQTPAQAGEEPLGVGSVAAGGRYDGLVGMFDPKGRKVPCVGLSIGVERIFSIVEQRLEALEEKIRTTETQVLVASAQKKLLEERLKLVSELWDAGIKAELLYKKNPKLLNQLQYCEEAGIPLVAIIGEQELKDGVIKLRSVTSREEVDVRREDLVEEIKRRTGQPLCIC

Series [4] addresses T3, Isoleucyl tRNA synthetase (O.J.) (UniProt P41252).
T3 sequence: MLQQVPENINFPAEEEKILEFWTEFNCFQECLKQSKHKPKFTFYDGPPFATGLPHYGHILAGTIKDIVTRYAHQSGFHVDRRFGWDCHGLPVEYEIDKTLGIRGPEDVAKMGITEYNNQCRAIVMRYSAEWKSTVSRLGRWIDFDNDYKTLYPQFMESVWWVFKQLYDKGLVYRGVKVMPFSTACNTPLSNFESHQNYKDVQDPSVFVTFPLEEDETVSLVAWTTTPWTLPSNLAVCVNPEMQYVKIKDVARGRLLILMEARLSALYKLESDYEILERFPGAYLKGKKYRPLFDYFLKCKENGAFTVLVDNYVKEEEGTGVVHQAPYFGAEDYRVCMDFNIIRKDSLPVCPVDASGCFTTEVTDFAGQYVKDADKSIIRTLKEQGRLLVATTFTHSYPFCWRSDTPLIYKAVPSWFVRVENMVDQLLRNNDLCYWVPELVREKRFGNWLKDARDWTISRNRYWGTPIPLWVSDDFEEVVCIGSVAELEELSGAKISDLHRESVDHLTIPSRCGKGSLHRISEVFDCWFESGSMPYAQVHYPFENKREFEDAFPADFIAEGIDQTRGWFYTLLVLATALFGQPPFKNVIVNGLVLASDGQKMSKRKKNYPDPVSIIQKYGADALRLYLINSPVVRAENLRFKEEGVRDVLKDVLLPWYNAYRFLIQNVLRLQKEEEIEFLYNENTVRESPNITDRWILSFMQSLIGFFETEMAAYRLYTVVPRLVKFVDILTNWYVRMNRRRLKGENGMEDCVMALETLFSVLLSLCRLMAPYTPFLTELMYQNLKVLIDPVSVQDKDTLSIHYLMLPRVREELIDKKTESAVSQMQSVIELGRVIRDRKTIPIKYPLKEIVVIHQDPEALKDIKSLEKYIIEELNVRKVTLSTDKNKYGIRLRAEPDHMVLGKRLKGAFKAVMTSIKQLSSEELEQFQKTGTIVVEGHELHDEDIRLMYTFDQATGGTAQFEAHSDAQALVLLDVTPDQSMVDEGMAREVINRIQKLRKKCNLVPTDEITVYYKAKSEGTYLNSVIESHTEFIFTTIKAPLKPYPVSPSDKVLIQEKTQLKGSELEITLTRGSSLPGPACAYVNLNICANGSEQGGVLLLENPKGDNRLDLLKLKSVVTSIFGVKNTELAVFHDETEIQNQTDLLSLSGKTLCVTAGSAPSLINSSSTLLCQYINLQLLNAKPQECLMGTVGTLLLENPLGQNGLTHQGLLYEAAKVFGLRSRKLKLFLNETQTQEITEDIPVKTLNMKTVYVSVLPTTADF

For a further series, the target named is Ki-67 (UniProt P46013).
The target of a further series is T4, La (UniProt P05455).
T4 sequence: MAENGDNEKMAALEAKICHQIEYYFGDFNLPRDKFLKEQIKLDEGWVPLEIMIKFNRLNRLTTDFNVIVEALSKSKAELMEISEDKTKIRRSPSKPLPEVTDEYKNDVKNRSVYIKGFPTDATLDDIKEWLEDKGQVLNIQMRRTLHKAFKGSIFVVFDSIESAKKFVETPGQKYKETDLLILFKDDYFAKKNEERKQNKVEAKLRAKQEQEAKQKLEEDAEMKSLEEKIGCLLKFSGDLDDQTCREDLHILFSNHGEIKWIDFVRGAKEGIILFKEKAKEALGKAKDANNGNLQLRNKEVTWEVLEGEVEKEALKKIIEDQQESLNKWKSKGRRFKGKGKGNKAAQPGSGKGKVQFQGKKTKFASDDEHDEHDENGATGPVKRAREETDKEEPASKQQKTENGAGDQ

A further series has as its target T5, PMS1 (UniProt P54277).
T5 sequence: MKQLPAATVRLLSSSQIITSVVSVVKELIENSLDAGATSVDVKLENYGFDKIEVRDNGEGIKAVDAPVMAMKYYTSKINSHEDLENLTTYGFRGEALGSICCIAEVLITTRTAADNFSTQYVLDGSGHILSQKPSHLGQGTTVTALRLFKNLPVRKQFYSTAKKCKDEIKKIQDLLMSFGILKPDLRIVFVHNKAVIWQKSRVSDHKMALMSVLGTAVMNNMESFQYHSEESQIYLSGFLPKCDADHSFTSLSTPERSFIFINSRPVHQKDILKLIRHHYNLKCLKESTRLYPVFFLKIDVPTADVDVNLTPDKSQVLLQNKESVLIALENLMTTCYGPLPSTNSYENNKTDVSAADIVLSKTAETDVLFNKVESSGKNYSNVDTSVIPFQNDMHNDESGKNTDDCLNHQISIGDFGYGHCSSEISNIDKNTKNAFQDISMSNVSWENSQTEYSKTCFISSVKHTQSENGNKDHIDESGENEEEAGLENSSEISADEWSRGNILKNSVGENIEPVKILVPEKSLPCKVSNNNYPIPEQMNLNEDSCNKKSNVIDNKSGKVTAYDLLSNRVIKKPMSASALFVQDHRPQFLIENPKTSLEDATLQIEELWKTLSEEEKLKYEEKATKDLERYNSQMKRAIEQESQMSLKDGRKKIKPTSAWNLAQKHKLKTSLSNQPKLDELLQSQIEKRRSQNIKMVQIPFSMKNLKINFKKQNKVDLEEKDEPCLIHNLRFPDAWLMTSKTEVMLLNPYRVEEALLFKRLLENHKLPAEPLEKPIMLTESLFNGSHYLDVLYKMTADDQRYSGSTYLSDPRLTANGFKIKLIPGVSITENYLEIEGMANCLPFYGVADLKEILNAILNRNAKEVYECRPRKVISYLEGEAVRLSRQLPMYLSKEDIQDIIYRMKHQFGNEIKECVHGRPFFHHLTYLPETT

The target in the next series is T6, PMS2 (UniProt P54278).
T6 sequence: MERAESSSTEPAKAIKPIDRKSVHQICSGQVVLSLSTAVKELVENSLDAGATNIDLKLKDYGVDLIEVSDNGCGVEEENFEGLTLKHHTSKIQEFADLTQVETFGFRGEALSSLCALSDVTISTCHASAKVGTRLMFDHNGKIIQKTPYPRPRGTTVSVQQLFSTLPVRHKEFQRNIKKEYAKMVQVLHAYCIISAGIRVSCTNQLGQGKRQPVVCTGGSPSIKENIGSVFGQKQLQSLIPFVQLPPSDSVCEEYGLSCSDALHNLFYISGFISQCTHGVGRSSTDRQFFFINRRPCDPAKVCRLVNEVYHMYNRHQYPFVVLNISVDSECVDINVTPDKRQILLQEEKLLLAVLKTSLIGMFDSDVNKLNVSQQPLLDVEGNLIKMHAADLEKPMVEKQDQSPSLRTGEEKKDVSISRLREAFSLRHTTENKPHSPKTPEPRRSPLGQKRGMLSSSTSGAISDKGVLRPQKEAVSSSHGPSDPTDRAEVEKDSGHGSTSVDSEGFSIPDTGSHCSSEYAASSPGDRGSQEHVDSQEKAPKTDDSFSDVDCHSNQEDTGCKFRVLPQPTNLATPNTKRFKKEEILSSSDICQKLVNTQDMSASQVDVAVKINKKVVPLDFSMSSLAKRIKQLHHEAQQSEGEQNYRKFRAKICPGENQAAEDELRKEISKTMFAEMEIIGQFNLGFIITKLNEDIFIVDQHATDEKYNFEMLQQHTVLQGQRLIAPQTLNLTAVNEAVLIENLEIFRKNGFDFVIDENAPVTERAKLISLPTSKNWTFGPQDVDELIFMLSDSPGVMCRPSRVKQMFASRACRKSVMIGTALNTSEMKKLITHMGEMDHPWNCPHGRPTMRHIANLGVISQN

The target of series [5] is RNA polymerase I large subunit (UniProt O95602).
Sequence of UniProt O95602 (O95602 whole entry, looked up, tested part not stated): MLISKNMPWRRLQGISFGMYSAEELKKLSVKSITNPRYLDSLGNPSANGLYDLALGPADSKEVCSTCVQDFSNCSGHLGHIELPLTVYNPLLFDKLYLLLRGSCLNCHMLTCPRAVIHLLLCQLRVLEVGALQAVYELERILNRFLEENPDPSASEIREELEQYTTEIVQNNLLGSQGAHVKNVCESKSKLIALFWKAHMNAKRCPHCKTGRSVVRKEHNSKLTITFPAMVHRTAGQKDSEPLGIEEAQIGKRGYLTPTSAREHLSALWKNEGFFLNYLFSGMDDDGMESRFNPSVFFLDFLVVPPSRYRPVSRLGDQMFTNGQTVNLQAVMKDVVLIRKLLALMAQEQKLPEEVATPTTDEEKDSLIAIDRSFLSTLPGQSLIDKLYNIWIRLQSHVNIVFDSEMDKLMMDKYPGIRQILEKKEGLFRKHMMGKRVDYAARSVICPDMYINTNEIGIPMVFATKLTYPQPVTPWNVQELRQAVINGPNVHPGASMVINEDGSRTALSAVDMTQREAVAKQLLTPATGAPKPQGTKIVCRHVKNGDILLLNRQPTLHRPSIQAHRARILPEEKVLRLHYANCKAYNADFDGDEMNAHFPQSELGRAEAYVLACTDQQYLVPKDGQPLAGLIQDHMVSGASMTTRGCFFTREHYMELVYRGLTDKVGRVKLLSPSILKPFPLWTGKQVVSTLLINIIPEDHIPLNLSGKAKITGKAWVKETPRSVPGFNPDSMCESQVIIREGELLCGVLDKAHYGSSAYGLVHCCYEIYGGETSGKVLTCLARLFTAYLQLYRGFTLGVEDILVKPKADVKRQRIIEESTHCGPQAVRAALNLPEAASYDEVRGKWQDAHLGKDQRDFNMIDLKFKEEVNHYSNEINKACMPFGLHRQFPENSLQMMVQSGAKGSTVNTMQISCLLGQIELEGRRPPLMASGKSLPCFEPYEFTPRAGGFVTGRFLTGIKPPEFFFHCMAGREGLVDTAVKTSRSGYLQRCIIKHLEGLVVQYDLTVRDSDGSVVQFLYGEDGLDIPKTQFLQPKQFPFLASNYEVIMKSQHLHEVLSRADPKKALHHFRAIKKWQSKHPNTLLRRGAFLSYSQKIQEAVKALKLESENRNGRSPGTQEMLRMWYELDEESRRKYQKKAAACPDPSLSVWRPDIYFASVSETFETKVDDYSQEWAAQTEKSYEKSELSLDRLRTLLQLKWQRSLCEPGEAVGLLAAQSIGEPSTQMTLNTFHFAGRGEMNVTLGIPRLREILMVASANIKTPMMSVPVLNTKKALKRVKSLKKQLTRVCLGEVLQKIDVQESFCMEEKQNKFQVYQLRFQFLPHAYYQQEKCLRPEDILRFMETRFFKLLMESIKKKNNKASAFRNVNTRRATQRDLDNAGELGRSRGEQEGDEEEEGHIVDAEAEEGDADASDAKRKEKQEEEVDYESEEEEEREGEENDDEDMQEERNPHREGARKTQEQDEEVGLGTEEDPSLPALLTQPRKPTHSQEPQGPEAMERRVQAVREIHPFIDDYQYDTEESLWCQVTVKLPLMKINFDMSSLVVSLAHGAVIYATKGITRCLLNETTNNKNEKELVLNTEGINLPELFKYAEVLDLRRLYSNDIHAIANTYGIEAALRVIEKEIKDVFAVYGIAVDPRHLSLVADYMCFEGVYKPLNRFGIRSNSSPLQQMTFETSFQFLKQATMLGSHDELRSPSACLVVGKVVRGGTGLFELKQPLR
The target in the next series is Topoisomerase I (UniProt P11387).
The target of another series is T7, caspase-3 precursor (UniProt P42574).
T7 sequence: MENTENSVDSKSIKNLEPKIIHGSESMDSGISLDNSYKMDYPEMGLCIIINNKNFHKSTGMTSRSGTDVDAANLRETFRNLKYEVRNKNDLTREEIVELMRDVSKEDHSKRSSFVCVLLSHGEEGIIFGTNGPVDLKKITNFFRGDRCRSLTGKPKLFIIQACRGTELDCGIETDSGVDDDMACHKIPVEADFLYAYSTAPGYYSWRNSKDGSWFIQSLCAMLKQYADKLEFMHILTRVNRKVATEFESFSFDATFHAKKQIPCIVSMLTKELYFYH

The target in a further series is T8, caspase-7 precursor (UniProt P55210).
T8 sequence: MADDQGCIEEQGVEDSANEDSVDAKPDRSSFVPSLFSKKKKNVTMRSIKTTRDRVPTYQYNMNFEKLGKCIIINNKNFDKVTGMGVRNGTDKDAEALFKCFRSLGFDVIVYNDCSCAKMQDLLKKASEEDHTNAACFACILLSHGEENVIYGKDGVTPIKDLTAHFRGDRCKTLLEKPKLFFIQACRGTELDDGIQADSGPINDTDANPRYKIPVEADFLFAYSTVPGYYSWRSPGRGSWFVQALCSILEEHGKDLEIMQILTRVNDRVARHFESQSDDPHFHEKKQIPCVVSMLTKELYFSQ

Another series has as its target T9, fibrillarin (UniProt P22087).
T9 sequence: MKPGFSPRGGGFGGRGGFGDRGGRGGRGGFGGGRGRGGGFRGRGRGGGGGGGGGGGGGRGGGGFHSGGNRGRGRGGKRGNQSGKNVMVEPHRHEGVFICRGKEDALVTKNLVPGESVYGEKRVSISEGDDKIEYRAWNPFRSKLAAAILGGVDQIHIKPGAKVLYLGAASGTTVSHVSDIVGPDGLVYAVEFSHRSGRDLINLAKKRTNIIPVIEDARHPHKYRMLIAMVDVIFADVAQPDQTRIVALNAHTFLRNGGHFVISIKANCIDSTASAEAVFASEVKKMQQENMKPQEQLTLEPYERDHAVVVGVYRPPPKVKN

Series [6] relates to nuclear mitotic apparatus protein.
Sequence of nuclear mitotic apparatus protein (chain, as listed by the source): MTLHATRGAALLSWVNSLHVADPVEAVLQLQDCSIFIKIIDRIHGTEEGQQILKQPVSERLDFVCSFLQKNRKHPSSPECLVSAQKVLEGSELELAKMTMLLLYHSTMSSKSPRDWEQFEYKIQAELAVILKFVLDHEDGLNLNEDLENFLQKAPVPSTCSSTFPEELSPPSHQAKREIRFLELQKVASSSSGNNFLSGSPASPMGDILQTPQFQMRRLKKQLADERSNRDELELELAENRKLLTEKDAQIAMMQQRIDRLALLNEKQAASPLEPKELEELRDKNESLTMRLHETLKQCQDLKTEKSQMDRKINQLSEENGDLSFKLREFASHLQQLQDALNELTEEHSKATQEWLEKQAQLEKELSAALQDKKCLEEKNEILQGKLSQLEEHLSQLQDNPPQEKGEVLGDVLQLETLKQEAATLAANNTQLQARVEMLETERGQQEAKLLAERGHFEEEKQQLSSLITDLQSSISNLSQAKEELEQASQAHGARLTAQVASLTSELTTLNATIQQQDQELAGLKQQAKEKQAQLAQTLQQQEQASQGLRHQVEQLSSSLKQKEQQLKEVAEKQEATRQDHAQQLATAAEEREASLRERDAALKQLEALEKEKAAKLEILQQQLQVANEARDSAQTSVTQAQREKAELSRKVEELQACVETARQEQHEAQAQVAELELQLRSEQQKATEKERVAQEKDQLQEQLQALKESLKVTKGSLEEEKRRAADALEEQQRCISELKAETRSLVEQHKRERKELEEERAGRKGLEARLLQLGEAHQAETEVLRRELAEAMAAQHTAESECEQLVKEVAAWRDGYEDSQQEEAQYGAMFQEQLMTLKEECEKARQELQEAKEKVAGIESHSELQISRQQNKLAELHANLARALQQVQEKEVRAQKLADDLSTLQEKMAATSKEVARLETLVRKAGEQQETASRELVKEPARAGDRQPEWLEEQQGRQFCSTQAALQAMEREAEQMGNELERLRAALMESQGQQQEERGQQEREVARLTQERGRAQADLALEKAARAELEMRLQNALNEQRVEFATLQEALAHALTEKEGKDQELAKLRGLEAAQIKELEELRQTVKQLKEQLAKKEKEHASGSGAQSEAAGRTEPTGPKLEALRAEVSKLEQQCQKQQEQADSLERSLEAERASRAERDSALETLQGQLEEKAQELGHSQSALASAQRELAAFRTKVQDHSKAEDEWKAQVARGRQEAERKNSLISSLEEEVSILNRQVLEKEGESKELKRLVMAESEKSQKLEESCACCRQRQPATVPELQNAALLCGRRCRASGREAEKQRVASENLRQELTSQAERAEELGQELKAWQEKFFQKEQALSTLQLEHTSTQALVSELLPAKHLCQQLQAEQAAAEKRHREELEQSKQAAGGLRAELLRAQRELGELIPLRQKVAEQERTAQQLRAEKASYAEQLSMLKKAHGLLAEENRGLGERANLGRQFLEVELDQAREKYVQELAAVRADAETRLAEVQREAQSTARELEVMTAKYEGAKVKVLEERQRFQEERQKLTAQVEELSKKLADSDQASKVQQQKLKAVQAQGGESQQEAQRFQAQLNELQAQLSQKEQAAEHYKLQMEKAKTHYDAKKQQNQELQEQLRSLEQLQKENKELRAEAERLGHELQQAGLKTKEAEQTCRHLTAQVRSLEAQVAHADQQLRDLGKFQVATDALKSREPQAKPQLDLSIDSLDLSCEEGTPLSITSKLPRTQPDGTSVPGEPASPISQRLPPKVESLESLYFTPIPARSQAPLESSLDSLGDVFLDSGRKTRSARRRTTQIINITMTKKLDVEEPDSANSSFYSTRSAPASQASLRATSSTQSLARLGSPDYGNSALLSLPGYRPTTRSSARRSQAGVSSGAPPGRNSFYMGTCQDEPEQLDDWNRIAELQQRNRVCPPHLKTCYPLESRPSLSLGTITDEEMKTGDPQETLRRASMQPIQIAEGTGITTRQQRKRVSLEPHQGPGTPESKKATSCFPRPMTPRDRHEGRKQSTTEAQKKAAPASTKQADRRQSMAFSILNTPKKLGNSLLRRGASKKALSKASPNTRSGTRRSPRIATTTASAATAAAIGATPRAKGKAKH
The subject of series [7] is poly(ADP-ribose) polymerase.

Where “and” joins values, the source holds several entries; their conditions need not be identical. Equal values may be shown once.

Sequence of UniProt P49588 (P49588 whole entry): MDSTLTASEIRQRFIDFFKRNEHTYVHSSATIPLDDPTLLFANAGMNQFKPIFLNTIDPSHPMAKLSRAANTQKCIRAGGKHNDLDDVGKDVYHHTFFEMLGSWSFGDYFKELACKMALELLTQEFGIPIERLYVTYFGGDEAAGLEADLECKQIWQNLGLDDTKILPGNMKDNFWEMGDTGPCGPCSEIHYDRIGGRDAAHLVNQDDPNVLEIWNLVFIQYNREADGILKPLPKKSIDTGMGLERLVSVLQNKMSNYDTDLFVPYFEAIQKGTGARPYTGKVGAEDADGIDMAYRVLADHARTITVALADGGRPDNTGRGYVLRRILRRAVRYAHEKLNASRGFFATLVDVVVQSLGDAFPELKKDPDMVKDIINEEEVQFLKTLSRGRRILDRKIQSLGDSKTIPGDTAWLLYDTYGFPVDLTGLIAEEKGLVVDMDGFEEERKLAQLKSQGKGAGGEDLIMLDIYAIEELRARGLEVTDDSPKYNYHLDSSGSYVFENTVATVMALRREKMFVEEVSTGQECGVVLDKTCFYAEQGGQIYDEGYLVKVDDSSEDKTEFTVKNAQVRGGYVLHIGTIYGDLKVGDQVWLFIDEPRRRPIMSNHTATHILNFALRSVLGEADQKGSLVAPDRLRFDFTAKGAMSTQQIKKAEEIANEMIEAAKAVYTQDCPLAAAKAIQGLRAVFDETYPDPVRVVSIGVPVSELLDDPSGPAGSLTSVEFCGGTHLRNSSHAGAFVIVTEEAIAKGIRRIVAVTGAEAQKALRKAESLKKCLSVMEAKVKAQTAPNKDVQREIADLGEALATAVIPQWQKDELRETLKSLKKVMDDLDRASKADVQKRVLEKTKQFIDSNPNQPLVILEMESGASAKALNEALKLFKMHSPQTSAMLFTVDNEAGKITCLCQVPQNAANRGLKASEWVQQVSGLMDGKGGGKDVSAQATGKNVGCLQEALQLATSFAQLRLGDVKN

Usually kcat/Km stands for the turnover number divided by the Michaelis constant. Take granzyme B (sequence left out): the cleavage result in series [1] is listed as “None of 18 different human non-autoantigens tested was cleaved by granzyme B”. For the same substance, the kcat/Km in series [2] was found to be 18000 M⁻¹ s⁻¹; with CENP B, 5900 M⁻¹ s⁻¹; in series [3], 23000 M⁻¹ s⁻¹; in series [4], 78000 M⁻¹ s⁻¹; with Ki-67, 8100 M⁻¹ s⁻¹; in the series with La it was 61000 M⁻¹ s⁻¹. Further, the kcat/Km turned out to be 85000 M⁻¹ s⁻¹ in the series with Mi-2; 69000 M⁻¹ s⁻¹ in the series with PMS1; 14000 M⁻¹ s⁻¹ in the series with PMS2; 7500 M⁻¹ s⁻¹ in the series with PmScl; 13000 M⁻¹ s⁻¹ in series [5]; 1.6e+06 M⁻¹ s⁻¹ in the series with Topoisomerase I. Besides, the kcat/Km with caspase-3 precursor is 36000 M⁻¹ s⁻¹ and 23000 M⁻¹ s⁻¹; in the series with caspase-7 precursor it was 180000 M⁻¹ s⁻¹; with fibrillarin it was 33000 M⁻¹ s⁻¹; in [6], 540000 M⁻¹ s⁻¹; in series [7] it was 23000 M⁻¹ s⁻¹.
